Source: PubChem BioAssay AID1030 (National Center for Advancing Translational Sciences (NCATS), 2008)
About 16,000 (7.3%) of roughly 220,000 compounds were called active. The inconclusive results got no clear call from the source; some entries with a clear call stand among them for comparison. The call rests on the fitted dose curve; in most records, active means well fitted inhibition curve with a large enough effect (not every such curve was filed as active); inconclusive means small, poorly fitted or top-dose-only effect, or another doubt; inactive means no such curve, though single readings can be large or run the other way. No potency is given beside an inconclusive call; the fits are too rough.

target: Aldehyde dehydrogenase 1A1 (Homo sapiens) (UniProt P00352); assay: qHTS Assay for Inhibitors of Aldehyde Dehydrogenase 1 (ALDH1A1); conditions: Purified ALDH1A1, NADH fluorescence, propionaldehyde substrate; series mostly up to 75.3 µM
Sequence of UniProt P00352 (P00352 whole entry, looked up): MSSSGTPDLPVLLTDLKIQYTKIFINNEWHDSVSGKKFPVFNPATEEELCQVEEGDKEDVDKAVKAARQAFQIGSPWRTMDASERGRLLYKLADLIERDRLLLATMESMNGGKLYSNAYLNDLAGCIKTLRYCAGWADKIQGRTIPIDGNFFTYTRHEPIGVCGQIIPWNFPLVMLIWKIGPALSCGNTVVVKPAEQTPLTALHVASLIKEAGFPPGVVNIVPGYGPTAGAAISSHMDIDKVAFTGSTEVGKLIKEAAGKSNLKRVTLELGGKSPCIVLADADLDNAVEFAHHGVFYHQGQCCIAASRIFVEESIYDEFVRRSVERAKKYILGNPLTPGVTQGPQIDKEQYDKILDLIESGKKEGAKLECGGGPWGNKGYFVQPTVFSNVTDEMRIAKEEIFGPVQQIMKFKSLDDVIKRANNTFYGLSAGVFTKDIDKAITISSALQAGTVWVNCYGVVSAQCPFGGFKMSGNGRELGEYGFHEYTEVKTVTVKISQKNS
Potency means the concentration at half of the fitted maximal effect; tags describe the fitted curve by direction and shape.

Row | SMILES | Potency
1 | Cc1[nH]nc2c1C1(C(=O)N(Cc3ccc(Cl)cc3)c3ccccc31)C(C#N)=C(N)O2 (stereo unspecified) | inconclusive [inhibitor, single point]
2 | COc1ccc(-c2ccc(/C=N/NC(=O)Cc3nnc(N)s3)o2)cc1Cl | inconclusive [inhibitor, single point]
3 | O=C(COn1nnc2ccc(S(=O)(=O)N3CCOCC3)cc21)Nc1c(F)c(F)c(F)c(F)c1F | inconclusive [inhibitor, partial curve]
4 | O=C(NNC(=O)C1CC1c1ccccc1)Nc1ccccc1 (stereo unspecified) | inactive
5 | Cc1ccc(C(=O)N/C(=C/c2ccc(-c3cccc([N+](=O)[O-])c3)o2)C(=O)NC(C)C)cc1 | inconclusive [inhibitor, single point]
6 | CN(C)c1ccc(/C=N/N(Cc2ccccc2)c2ccccc2)cc1 | inconclusive [inhibitor, single point]
7 | COc1ccc(N(CC(=O)Nc2cc(C)cc(C)c2)S(=O)(=O)c2ccccc2[N+](=O)[O-])c(OC)c1 | inactive
8 | CN1CCc2c(sc(/N=C/c3ccco3)c2C(N)=O)C1 | inconclusive [inhibitor, partial curve]
9 | CCOC(=O)C1=C(C)OC(N)=C(C#N)C1c1cc2c(cc1Br)OCO2 (stereo unspecified) | inconclusive [inhibitor, partial curve]
10 | COCCSc1ccccc1C(=O)NCCCn1ccnc1 | inactive
11 | Nc1nc(-c2ccc([N+](=O)[O-])cc2)cs1 | inactive
12 | C=CCn1c(SCC(=O)N2CCc3ccccc3C2)nc2sc(CC)cc2c1=O | inconclusive [inhibitor, single point]
13 | CC1=C(C#N)C2(O)C(=O)c3ccccc3C2(O)N1 (stereo unspecified) | inconclusive [inhibitor, single point]
14 | O=C(c1nnsc1S(=O)c1ccc(Cl)cc1)N1CCOCC1 (stereo unspecified) | active: 7.08 µM
15 | CCOC(=O)c1c(-c2ncc(C(F)(F)F)cc2Cl)noc1C | inactive
16 | O=C(Cn1c(C(=O)NCC2CCCO2)cc2sccc21)c1ccccc1 (stereo unspecified) | inactive
17 | Nc1nc(-c2cccc(F)c2)cs1 | inactive
18 | CC(C)(C)OC(=O)NNC(=O)Nc1ccccc1C(F)(F)F | inactive
19 | Cc1cc(/C=C2/NC(=O)NC2=O)c(C)n1-c1cccnc1 | inconclusive [inhibitor, single point]
20 | COc1cccc(C2c3[nH]c4ccccc4c3CCN2CCCn2cccn2)c1 (stereo unspecified) | inconclusive [inhibitor, single point]
21 | O=C(COc1ccc(-c2ccccc2)cc1)NNC(=O)NC1CCCCC1 | inactive
